# Source: the supplement of paper PMC12217912
# Some of the results follow. Sequences were assembled here from the parent chain. Inactive controls read about 0.05.
# B1: TEV protease; numbered along this chain (parent)
# chain: MGESLFKGPRDYNPISSSICHLTNESDGHTTSLYGIGFGPFIITNKHLFRRNNGTLVVQSLHGVFKVKDTTTLQQHLVDGRDMIIIRMPKDFPPFPQKLKFREPQREERICLVTTNFQTKSMSSMVSDTSCTFPSGDGIFWKHWIQTKDGQCGSPLVSTRDGFIVGIHSASNFTNTNNYFTSVPKNFMELLTNQEAQQWVSGWRLNADSVLWGGHKVFMVKPEEPFQPVKEATQL
# Variants of: B1
# Assay: raw area under fraction-flipped curve 0-4 h after induction (AUC4h, not background-subtracted), DNA-recorder readout of cleavage of the substrate (dimensionless); higher = more cleavage of the substrate by the protease variant
# Conditions: temperature: 34 °C; time window: 0-4 h after rhamnose induction
# Protocol: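 In vivo DNA recorder in E. coli TOP10(DE3) ΔrhaA at 34 °C. Each TEVp single-site mutant (parent TEVp 0) is paired with a single-site variant of the 7-mer TEVs (canonical ENLYFQ|S). The substrate sits between flexible linkers in a Bxb1-sfGFP-TEVs-SsrA fusion, so cleavage stabilises Bxb1 and speeds flipping of a recombination array, read by NGS. The value is the raw area under the fraction-flipped curve over 0-4 h after rhamnose induction (AUC4h), with ≥20 reads per time point. It is not background-subtracted; inactive controls average about 0.047.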
# 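Also: Bxb1 expression induced with 0.2% (w/v) L-rhamnose at OD600 near 0.5, cultures sampled hourly, flipped fraction per protease–substrate barcode pair counted by paired-end Illumina sequencing.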
variant,measurement,value
MGESLFKGPRDYNPISSSICHLTNESDGHTTSLYGIGFGPFIITNKHLFRRNNGTLVVQSLHGVGKVKDTTTLQQHLVDGRDMIIIRMPKDFPPFPQKLKFREPQREERICLVTTNFQTKSMSSMVSDTSCTFPSGDGIFWKHWIQTKDGQCGSPLVSTRDGFIVGIHSASNFTNTNNYFTSVPKNFMELLTNQEAQQWVSGWRLNADSVLWGGHKVFMVKPEEPFQPVKEATQL [F65G],area with substrate ENLYDQS,0.0488
same,area with substrate ENLYEQS,0.0516
same,area with substrate ENLYHQS,0.063
same,area with substrate ENLYIQS,0.106
same,area with substrate ENLYKQS,0.0096
same,area with substrate ENLYLQS,0.0714
same,area with substrate ENLYMQS,0.072
same,area with substrate ENLYNQS,0.0692
same,area with substrate ENLYPQS,0.0743
same,area with substrate ENLYQQS,0.0799
same,area with substrate ENLYRQS,0.0629
same,area with substrate ENLYTQS,0.108
same,area with substrate ENLYYQS,0.0774
MGESLFKGPRDYNPISSSICHLTNESDGHTTSLYGIGFGPFIITNKHLFRRNNGTLVVQSLHGVFLVKDTTTLQQHLVDGRDMIIIRMPKDFPPFPQKLKFREPQREERICLVTTNFQTKSMSSMVSDTSCTFPSGDGIFWKHWIQTKDGQCGSPLVSTRDGFIVGIHSASNFTNTNNYFTSVPKNFMELLTNQEAQQWVSGWRLNADSVLWGGHKVFMVKPEEPFQPVKEATQL [K66L],area with substrate ENLYDQS,0.0589
same,area with substrate ENLYEQS,0.0615
same,area with substrate ENLYGQS,0.0338
same,area with substrate ENLYHQS,0.0626
same,area with substrate ENLYIQS,0.163
same,area with substrate ENLYKQS,0.0781
same,area with substrate ENLYNQS,0.0662
same,area with substrate ENLYPQS,0.053
same,area with substrate ENLYQQS,0.0616
same,area with substrate ENLYRQS,0.0519
same,area with substrate ENLYSQS,0.0672
same,area with substrate ENLYTQS,0.0847
same,area with substrate ENLYVQS,0.128
same,area with substrate ENLYWQS,0.0778
same,area with substrate ENLYYQS,0.0693
MGESLFKGPRDYNPISSSICHLTNESDGHTTSLYGIGFGPFIITNKHLFRRNNGTLVVQSLHGVFKVKETTTLQQHLVDGRDMIIIRMPKDFPPFPQKLKFREPQREERICLVTTNFQTKSMSSMVSDTSCTFPSGDGIFWKHWIQTKDGQCGSPLVSTRDGFIVGIHSASNFTNTNNYFTSVPKNFMELLTNQEAQQWVSGWRLNADSVLWGGHKVFMVKPEEPFQPVKEATQL [D69E],area with substrate ENLYDQS,0.0597
same,area with substrate ENLYEQS,0.069
same,area with substrate ENLYGQS,0.0644
same,area with substrate ENLYHQS,0.065
same,area with substrate ENLYIQS,0.109
same,area with substrate ENLYKQS,0.0221
same,area with substrate ENLYMQS,0.078
same,area with substrate ENLYNQS,0.052
same,area with substrate ENLYPQS,0.0592
same,area with substrate ENLYRQS,0.0472
same,area with substrate ENLYSQS,0.0531
same,area with substrate ENLYVQS,0.0879
same,area with substrate ENLYWQS,0.0843
same,area with substrate ENLYYQS,0.0902
MGESLFKGPRDYNPISSSICHLTNESDGHTTSLYGIGFGPFIITNKHLFRRNNGTLVVQSLHGVFKVKDTTTLQQHYVDGRDMIIIRMPKDFPPFPQKLKFREPQREERICLVTTNFQTKSMSSMVSDTSCTFPSGDGIFWKHWIQTKDGQCGSPLVSTRDGFIVGIHSASNFTNTNNYFTSVPKNFMELLTNQEAQQWVSGWRLNADSVLWGGHKVFMVKPEEPFQPVKEATQL [L77Y],area with substrate ENLYDQS,0.0539
same,area with substrate ENLYEQS,0.057
same,area with substrate ENLYGQS,0.0593
same,area with substrate ENLYHQS,0.0543
same,area with substrate ENLYIQS,0.0616
same,area with substrate ENLYKQS,0.05
same,area with substrate ENLYLQS,0.0561
same,area with substrate ENLYMQS,0.0292
same,area with substrate ENLYNQS,0.0595
same,area with substrate ENLYPQS,0.0542
same,area with substrate ENLYRQS,0.0689
same,area with substrate ENLYSQS,0.0614
same,area with substrate ENLYTQS,0.063
same,area with substrate ENLYVQS,0.058
MGESLFKGPRDYNPISSSICHLTNESDGHTTSLYGIGFGPFIITNKHLFRRNNGTLVVQSLHGVFKVKDTTTLQQHLWDGRDMIIIRMPKDFPPFPQKLKFREPQREERICLVTTNFQTKSMSSMVSDTSCTFPSGDGIFWKHWIQTKDGQCGSPLVSTRDGFIVGIHSASNFTNTNNYFTSVPKNFMELLTNQEAQQWVSGWRLNADSVLWGGHKVFMVKPEEPFQPVKEATQL [V78W],area with substrate ENLYDQS,0.0649
same,area with substrate ENLYEQS,0.0615
same,area with substrate ENLYGQS,0.0715
same,area with substrate ENLYHQS,0.0496
same,area with substrate ENLYKQS,0.0749
same,area with substrate ENLYLQS,0.0731
same,area with substrate ENLYMQS,0.0649
same,area with substrate ENLYNQS,0.0578
same,area with substrate ENLYPQS,0.0722
same,area with substrate ENLYQQS,0.0635
same,area with substrate ENLYRQS,0.0612
same,area with substrate ENLYSQS,0.0559
same,area with substrate ENLYTQS,0.0648
same,area with substrate ENLYWQS,0.0634
same,area with substrate ENLYYQS,0.0554
MGESLFKGPRDYNPISSSICHLTNESDGHTTSLYGIGFGPFIITNKHLFRRNNGTLVVQSLHGVFKVKDTTTLQQHLVDGRKMIIIRMPKDFPPFPQKLKFREPQREERICLVTTNFQTKSMSSMVSDTSCTFPSGDGIFWKHWIQTKDGQCGSPLVSTRDGFIVGIHSASNFTNTNNYFTSVPKNFMELLTNQEAQQWVSGWRLNADSVLWGGHKVFMVKPEEPFQPVKEATQL [D82K],area with substrate ENLYDQS,0.0646
same,area with substrate ENLYEQS,0.0691
same,area with substrate ENLYGQS,0.0642
same,area with substrate ENLYHQS,0.059
same,area with substrate ENLYKQS,0.0642
same,area with substrate ENLYMQS,0.0572
same,area with substrate ENLYNQS,0.0724
same,area with substrate ENLYPQS,0.0609
same,area with substrate ENLYRQS,0.0648
MGESLFKGPRDYNPISSSICHLTNESDGHTTSLYGIGFGPFIITNKHLFRRNNGTLVVQSLHGVFKVKDTTTLQQHLVDGRDMIIIRAPKDFPPFPQKLKFREPQREERICLVTTNFQTKSMSSMVSDTSCTFPSGDGIFWKHWIQTKDGQCGSPLVSTRDGFIVGIHSASNFTNTNNYFTSVPKNFMELLTNQEAQQWVSGWRLNADSVLWGGHKVFMVKPEEPFQPVKEATQL [M88A],area with substrate ENLYDQS,0.0514
same,area with substrate ENLYEQS,0.0651
same,area with substrate ENLYHQS,0.0608
same,area with substrate ENLYIQS,0.0844
same,area with substrate ENLYKQS,0.0514
same,area with substrate ENLYNQS,0.0666
same,area with substrate ENLYPQS,0.0778
same,area with substrate ENLYQQS,0.0771
same,area with substrate ENLYRQS,0.063
same,area with substrate ENLYYQS,0.0602
MGESLFKGPRDYNPISSSICHLTNESDGHTTSLYGIGFGPFIITNKHLFRRNNGTLVVQSLHGVFKVKDTTTLQQHLVDGRDMIIIRMPKDFPPFPQALKFREPQREERICLVTTNFQTKSMSSMVSDTSCTFPSGDGIFWKHWIQTKDGQCGSPLVSTRDGFIVGIHSASNFTNTNNYFTSVPKNFMELLTNQEAQQWVSGWRLNADSVLWGGHKVFMVKPEEPFQPVKEATQL [K98A],area with substrate ENLYDQS,0.0572
same,area with substrate ENLYEQS,0.0754
same,area with substrate ENLYGQS,0.0548
same,area with substrate ENLYHQS,0.0795
same,area with substrate ENLYKQS,0.0458
same,area with substrate ENLYNQS,0.0813
same,area with substrate ENLYPQS,0.0516
same,area with substrate ENLYQQS,0.0499
same,area with substrate ENLYSQS,0.113
same,area with substrate ENLYVQS,0.0993
same,area with substrate ENLYYQS,0.0073
MGESLFKGPRDYNPISSSICHLTNESDGHTTSLYGIGFGPFIITNKHLFRRNNGTLVVQSLHGVFKVKDTTTLQQHLVDGRDMIIIRMPKDFPPFPQKLKFREPQAEERICLVTTNFQTKSMSSMVSDTSCTFPSGDGIFWKHWIQTKDGQCGSPLVSTRDGFIVGIHSASNFTNTNNYFTSVPKNFMELLTNQEAQQWVSGWRLNADSVLWGGHKVFMVKPEEPFQPVKEATQL [R106A],area with substrate ENLYDQS,0.0765
same,area with substrate ENLYEQS,0.0441
same,area with substrate ENLYHQS,0.066
same,area with substrate ENLYIQS,0.0991
same,area with substrate ENLYKQS,0.0528
same,area with substrate ENLYMQS,0.1
same,area with substrate ENLYNQS,0.0765
same,area with substrate ENLYPQS,0.0628
same,area with substrate ENLYRQS,0.0505
same,area with substrate ENLYSQS,0.0853
same,area with substrate ENLYVQS,0.0848
same,area with substrate ENLYWQS,0.069
MGESLFKGPRDYNPISSSICHLTNESDGHTTSLYGIGFGPFIITNKHLFRRNNGTLVVQSLHGVFKVKDTTTLQQHLVDGRDMIIIRMPKDFPPFPQKLKFREPQREERICLVTTSFQTKSMSSMVSDTSCTFPSGDGIFWKHWIQTKDGQCGSPLVSTRDGFIVGIHSASNFTNTNNYFTSVPKNFMELLTNQEAQQWVSGWRLNADSVLWGGHKVFMVKPEEPFQPVKEATQL [N116S],area with substrate ENLYDQS,0.0494
same,area with substrate ENLYEQS,0.0859
same,area with substrate ENLYHQS,0.0624
same,area with substrate ENLYMQS,0.0793
same,area with substrate ENLYRQS,0.047
same,area with substrate ENLYSQS,0.0814
same,area with substrate ENLYTQS,0.0793
